Assay results taken from the supplement of paper PMC12067230.
Single values of this set are uncertain.

assay: amyloid nucleation score relative to library mode (yeast Sup35 reporter selection) (log enrichment difference); higher = more amyloid nucleation; sequences are the first 22 residues of the Bri2 peptide extended by up to 12 random residues; details: random library (experiment): 1;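 active = nucleation score significantly above 0 at FDR 0.05; inactive = not significantly above 0 or absent from output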
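Note: [psi-pin-] Saccharomyces cerevisiae expressing SupN fusions, induced by 100 µM Cu2SO4, selected 7 d at 30 °C without adenine and uracil, scored by deep sequencing of output versus input.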

Sequence | amyloid nucleation score
EASNCFAIRHFENKFAVETLICLMRS | inactive
EASNCFAIRHFENKFAVETLICLMRVAPPSLWVG | inactive
EASNCFAIRHFENKFAVETLICLMRWSRTVACVG | inactive
EASNCFAIRHFENKFAVETLICLMSGCK | inactive
EASNCFAIRHFENKFAVETLICLMSGMLGGKSLA | inactive
EASNCFAIRHFENKFAVETLICLMSHCKCPFTEA | 7.49
EASNCFAIRHFENKFAVETLICLMSSLGTVPLCR | inactive
EASNCFAIRHFENKFAVETLICLMSSPDPLVLER | inactive
EASNCFAIRHFENKFAVETLICLMT | 0.726
EASNCFAIRHFENKFAVETLICLMVIG | inactive
EASNCFAIRHFENKFAVETLICLMVSQPMLSSVV | inactive
EASNCFAIRHFENKFAVETLICLMWYPT | inactive
EASNCFAIRHFENKFAVETLICLNCGCRGRLMIT | inactive
EASNCFAIRHFENKFAVETLICLNDCARRVSCRC | -0.399
EASNCFAIRHFENKFAVETLICLNDKGIGTHVFK | 1.03
EASNCFAIRHFENKFAVETLICLNLCISKHTFGA | 4.14
EASNCFAIRHFENKFAVETLICLNMLRTWRASVA | -0.195

same assay, conditions: random library (experiment): 2

Sequence | amyloid nucleation score
EASNCFAIRHFENKFAVETLICLMSLDSVLRCKR | -0.378
EASNCFAIRHFENKFAVETLICLMSMYTSFIVFT | 0.923
EASNCFAIRHFENKFAVETLICLMSTIHLPLIDW | inactive
EASNCFAIRHFENKFAVETLICLMVWAYQKYMNG | inactive
EASNCFAIRHFENKFAVETLICLMWHHVNAQTDF | 2.68
EASNCFAIRHFENKFAVETLICLMYFKFNTIVDG | inactive
EASNCFAIRHFENKFAVETLICLMYNYQHRVFLS | inactive
EASNCFAIRHFENKFAVETLICLMYT | inactive
EASNCFAIRHFENKFAVETLICLN | inactive
EASNCFAIRHFENKFAVETLICLNDARKRNLNRV | inactive
EASNCFAIRHFENKFAVETLICLNECYNQQSSIS | inactive
EASNCFAIRHFENKFAVETLICLNEV | inactive
EASNCFAIRHFENKFAVETLICLNFSIRSLEWLI | 4.4
EASNCFAIRHFENKFAVETLICLNHHKMQFFLYQ | inactive
EASNCFAIRHFENKFAVETLICLNIFL | 8.17
EASNCFAIRHFENKFAVETLICLNILANSTCSFA | 5.72
EASNCFAIRHFENKFAVETLICLNILRRVTIHLH | inactive
EASNCFAIRHFENKFAVETLICLNINHVPWQSSM | 6.65
EASNCFAIRHFENKFAVETLICLNL | 5.73
EASNCFAIRHFENKFAVETLICLNLFGFSKRNSA | 8.32
EASNCFAIRHFENKFAVETLICLNLKVAD | inactive
EASNCFAIRHFENKFAVETLICLNLVNCCYLKYQ | inactive

same assay, conditions: random library (experiment): 3

Sequence | amyloid nucleation score
EASNCFAIRHFENKFAVETLICLMRGRVPCWSSG | inactive
EASNCFAIRHFENKFAVETLICLMRLCRGYCDFR | 5.06
EASNCFAIRHFENKFAVETLICLMRVT | inactive
EASNCFAIRHFENKFAVETLICLMSDNHVMSVTW | inactive
EASNCFAIRHFENKFAVETLICLMTV | inactive
EASNCFAIRHFENKFAVETLICLMWEWPLPRAQG | inactive
EASNCFAIRHFENKFAVETLICLMWGLSRTGLDA | inactive
EASNCFAIRHFENKFAVETLICLNASINGCSRLQ | 9.08
EASNCFAIRHFENKFAVETLICLNGLVRGMLSML | 1.05
